Results on 41 molecules are retold here after the supplement of paper PMC11369174, “Proteome-scale characterisation of motif-based interactome rewiring by disease mutations” (Molecular Systems Biology, 2024).

Some of the results follow. Single values of this set are uncertain.

Common to all, as to experiment: mutation enrichment score (mutant vs wild-type peptide binding to bait); baits are purified protein domains named by gene / domain / UniProt id / residues; peptides come from disordered regions of human proteins; higher = mutation enhances binding relative to wild type
In assay [1] the target is Intersectin-1_SH3_3_Q15811_1002_1060. Particulars: wild-type window: ….
In a further assay the target is Src_SH3__P12931_87_144. Particulars: wild-type window: ….
The target of the next assay is KPNA4_Arm__O00629_68_487. The settings on record: wild-type window: ….
Chain of KPNA4_Arm__O00629_68_487 (chain, as listed by the source): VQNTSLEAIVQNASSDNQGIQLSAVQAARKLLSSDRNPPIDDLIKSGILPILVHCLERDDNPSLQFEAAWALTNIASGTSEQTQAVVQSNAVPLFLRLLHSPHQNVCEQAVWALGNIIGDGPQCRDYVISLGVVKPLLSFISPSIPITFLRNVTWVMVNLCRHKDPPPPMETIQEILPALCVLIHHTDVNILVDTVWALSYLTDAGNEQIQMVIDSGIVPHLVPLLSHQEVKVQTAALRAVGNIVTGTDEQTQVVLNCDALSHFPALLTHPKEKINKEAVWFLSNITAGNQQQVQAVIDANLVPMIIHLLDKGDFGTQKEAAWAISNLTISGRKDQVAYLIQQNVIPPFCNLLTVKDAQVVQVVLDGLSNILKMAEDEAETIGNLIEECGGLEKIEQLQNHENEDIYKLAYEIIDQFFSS
Assay [2] addresses Intersectin-1_SH3_2_Q15811_913_971. The settings on record: wild-type window: ….
Assay [3] addresses Intersectin-1_SH3_5_Q15811_1155_1214. The settings on record: number of wild-type / mutant comparisons summed (bounds the score): 6; paper call: no_effect; wild-type window: ….
Assay [4] has as its target Intersectin-1_SH3_1_Q15811_740_806. The settings on record: number of wild-type / mutant comparisons summed (bounds the score): 12, wild-type window: ….
The target of assay [5] is T1, SIN3A_PAH__Q96ST3_295_383.
T1 chain: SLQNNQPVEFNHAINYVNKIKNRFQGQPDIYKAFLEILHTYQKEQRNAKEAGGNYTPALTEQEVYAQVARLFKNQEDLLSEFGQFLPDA
The settings on record: number of wild-type / mutant comparisons summed (bounds the score): 5; paper call: no_effect; wild-type window: ….

For assay [6], the target named is PDCD6IP_Alix-V-domain__Q8WUM4_360_702. Particulars: number of wild-type / mutant comparisons summed (bounds the score): 10; paper call: enhanced; wild-type window: ….
A further assay deals with T2, PIK3R1_SH3_1_P27986_6_78.
T2 chain: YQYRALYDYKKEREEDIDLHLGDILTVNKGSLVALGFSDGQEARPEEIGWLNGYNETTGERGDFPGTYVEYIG
The settings on record: number of wild-type / mutant comparisons summed (bounds the score): 27; paper call: enhanced; wild-type window: ….

The next assay addresses NCK1_SH3_1_P16333_5_60. The settings on record: number of wild-type / mutant comparisons summed (bounds the score): 12; paper call: enhanced; wild-type window: ….
Another assay addresses OXSR1___O95747_434_527. Particulars: number of wild-type / mutant comparisons summed (bounds the score): 12; paper call: no_effect; wild-type window: ….
The mark [7] stands for this setting: number of wild-type / mutant comparisons summed (bounds the score): 12, paper call: no_effect.
The mark [8] stands for this setting: number of wild-type / mutant comparisons summed (bounds the score): 6, paper call: no_effect.
[9] abbreviates: number of wild-type / mutant comparisons summed (bounds the score): 12, paper call: enhanced.
The mark [10] stands for this setting: number of wild-type / mutant comparisons summed (bounds the score): 9, paper call: no_effect.
Where [11] appears, read: number of wild-type / mutant comparisons summed (bounds the score): 9, paper call: diminished.
[12] abbreviates: number of wild-type / mutant comparisons summed (bounds the score): 6, paper call: enhanced.
Setting [13] is: number of wild-type / mutant comparisons summed (bounds the score): 18, paper call: diminished.

For ETTEPVKVSEPPLPPGRVTLADVTRNTATIKWEKPESDGGS [V26232A V26232A], the mutation enrichment score in assay [1] (setting [7]) is 0; with Src_SH3__P12931_87_144 (setting [8]) it was -0.82.
Take QRASYAAGPASNYADPYRQLPYCPSVESPYSKSGPALPPEG [Q507P Q507P]: the mutation enrichment score was found to be 3 in [1] (setting [7]) and 7 in the assay with Src_SH3__P12931_87_144 (setting [9]).
Regarding EEFLIKPESKVAKLDTSQWPVLLKNFDKLNVRTTHYTPLAC [L54V L54V], in the assay with KPNA4_Arm__O00629_68_487 (setting [10]), the mutation enrichment score was 2.1.
Turning to RYNPLQDEWVLVSAHRMKRPRQGQVEPQLLKTVPRHDPLNP [W53R W53R], in the assay with KPNA4_Arm__O00629_68_487 (setting [11]), the mutation enrichment score was -6.
As for MAPPSEETPLIPQRSCSLLSREAGALHV [T8R T8R], the mutation enrichment score in assay [1] (setting [8]) is 4.
IQHAEEFLIKPESKVAKLDTYQWPLLLKNFDKLNVRTTHYT [S50Y S50Y]: the mutation enrichment score with KPNA4_Arm__O00629_68_487 (setting [10]) is -3.9.
NPLQDEWVLVSAHRMKRPWQCQVEPQLLKTVPRHDPLNPLC [G55C G55C]: the mutation enrichment score in the assay with KPNA4_Arm__O00629_68_487 (setting [10]) was -1.8.
Take VPEVDAQGEEMKEEFETYADVLWWGLITLATIGYGDKTPKT [A306V A306V]: the mutation enrichment score was found to be 0 in [2] (setting [8]) and 1 with KPNA4_Arm__O00629_68_487 (setting [10]).
In the case of DEENQEMSSCKSARIETSCSVLEQTQPATPSLWKNKEQHLS [L489V L489V], the mutation enrichment score in the assay with KPNA4_Arm__O00629_68_487 (setting [10]) was determined as 1.9.
For the molecule SDKPQDFQIRVQVIEGRQLPEVNIKPVVKVTAAGQTKRTRI [G234E G234E], the mutation enrichment score (in [1] (setting [12]); in the assay with Src_SH3__P12931_87_144 (setting [12])) was 6 throughout.
Turning to LSTLALLYGPKIVPRELAEARGVVMSFYVCLGLTLGSACST [T449R T449R], in assay [3], the mutation enrichment score is 1.7.
On to MCSLGLFPPPPPRGQVTLYEKNNELVTGSSYESPP [Q15K Q15K], for which the mutation enrichment score is -2.9 in [1] (setting [8]), -4.8 in assay [3] and -0.43 with Src_SH3__P12931_87_144 (setting [8]).
Regarding VGSPQPSSSGGEKRRWNEEPSESPAQVQQESSQAGPPSEGA [W269S W269S], the mutation enrichment score with KPNA4_Arm__O00629_68_487 (setting [11]) was -6.
In the case of EDLQELNDRLAVYIDRVRSLGTENAGLRLRITESEEVVSRE [E53G E53G], in the assay with KPNA4_Arm__O00629_68_487 (setting [10]), the mutation enrichment score was 5.
As for PQIIKHKALDLDDRWQFKRSQLLDTQDKRSKADTGSSNQDK [R361Q R361Q], in the assay with KPNA4_Arm__O00629_68_487 (setting [11]), the mutation enrichment score is -6.
As for EGKMDDEDPLVPGRDRGQELGVVLKVLDPSHHDIALAFYET [R638G R638G], the mutation enrichment score in [1] (setting [8]) was -2; in assay [3], -5.
Take SLPEEDVAEIQHAEEFLIKPKSKVAKLDTSQWPLLLKNFDK [E41K E41K]: the mutation enrichment score with KPNA4_Arm__O00629_68_487 (setting [10]) was -4.
For the molecule NMRVEDYEPYPDDGMGYGDYLKLPDRSQHERDPWYSWDQPG [P76L P76L], the mutation enrichment score in [4] (paper call: diminished) was -10; in assay [1] (setting [8]), -3.
The like results for NMRVEDYEPYPDDGMGYGDYQKLPDRSQHERDPWYSWDQPG [P76Q P76Q] were, in that order, -10 and -3.
As to EEEDEEHSGNDSDGSEPSEKCTRLEEEIVEQTMRRRQRREW [R157C R157C], in the assay with KPNA4_Arm__O00629_68_487 (setting [11]), the mutation enrichment score is -7.
Consider QATENKVKNLTEEMAALDESMARLTKEKKALQEAHQQALGD [V1038M V1038M], for which, in the assay with KPNA4_Arm__O00629_68_487 (setting [10]), the mutation enrichment score is -4.
Regarding DAQGEEMKEEFETYADALWWVLITLATIGYGDKTPKTWEGR [G310V G310V], the mutation enrichment score in [2] (setting [8]) and in assay [5] was 1 in each case.
In the case of ESAEEAWGTEEAPAPAPARSVLQLRLAESQARLDHDVAAAV [L108V L108V], the mutation enrichment score in assay [3] was -2.
In the case of EIQHAEEFLIKPESKVAKLDMSQWPLLLKNFDKLNVRTTHY [T49M T49M], in the assay with KPNA4_Arm__O00629_68_487 (setting [10]), the mutation enrichment score was 1.8.
For LASFLVYLAEKGENDHFDTYTDALWWGLITLTTIGYGDKYP [A265T A265T], in the assay with KPNA4_Arm__O00629_68_487 (setting [10]), the mutation enrichment score is 1.
On the same count and under the same terms, as for PEEDVAEIQHAEEFLIKPESEVAKLDTSQWPLLLKNFDKLN [K43E K43E], the figure is -4.
As to ESEPSEPSDPVLCREKLYPPLPPRWLEVINITKNTADLKWT [S15012L S15012L], the mutation enrichment score in assay [4] (paper call: enhanced) was determined as 12; in assay [1] (setting [9]), 10; in [6], 9; with PIK3R1_SH3_1_P27986_6_78, 19; with Src_SH3__P12931_87_144 (setting [9]), 9.
For HIRYNPLQDEWVLVSAHRMKLPWQGQVEPQLLKTVPRHDPL [R51L R51L], the mutation enrichment score with KPNA4_Arm__O00629_68_487 (setting [11]) was -6.
The same measure, in the same setting: as for HIRYNPLQDEWVLVSAHRMKQPWQGQVEPQLLKTVPRHDPL [R51Q R51Q], the figure is -6.
Take PKTDDSFSDVDCHSNQEDTGYKFRVLPQPTNLATPNTKRFK [C560Y C560Y]: the mutation enrichment score in assay [1] (setting [7]) stood at 2; with Src_SH3__P12931_87_144 (setting [9]) it was 6.
Turning to PAASTAKPPPLPRSNTVASFFSLYQSSCQGQLHRSVSWADS [S1276F S1276F], the mutation enrichment score was -3 in assay [1] (setting [8]) and -2 with Src_SH3__P12931_87_144 (setting [8]).
As for NKIQLEAKVKEMNERLEDEEGMNAELTAKKRKLEDECSELK [E931G E931G], the mutation enrichment score in the assay with KPNA4_Arm__O00629_68_487 (setting [10]) was -4.
The same measure, in the same setting: next, NKIQLEAKVKEMNERLEDEEKMNAELTAKKRKLEDECSELK [E931K E931K]: -3.5.
With MAENLLDGPPNPKRAKLSSPEFSANDSTDFGSL [K13E K13E], the mutation enrichment score with KPNA4_Arm__O00629_68_487 (setting [11]) is -6.
With GASLVLQVSYTPLPGAVPLFLPPTPLEPSPTLPDLDVVADT [P134L P134L], the mutation enrichment score stood at 8.3 in assay [2] (setting [9]), 7.5 with NCK1_SH3_1_P16333_5_60, 0 in the assay with OXSR1___O95747_434_527 and 7 with Src_SH3__P12931_87_144 (setting [9]).
Take KNKIQLEAKVKEMNERLEDEKEMNAELTAKKRKLEDECSEL [E930K E930K]: the mutation enrichment score in the assay with KPNA4_Arm__O00629_68_487 (setting [10]) is -4.
The same measure, in the same setting: as for KNKIQLEAKVKEMNERLEDEQEMNAELTAKKRKLEDECSEL [E930Q E930Q], the figure is -3.3.
For the molecule LEAKVKEMNERLEDEEEMNAKLTAKKRKLEDECSELKRDID [E935K E935K], in the assay with KPNA4_Arm__O00629_68_487 (setting [10]), the mutation enrichment score is -4.
As to LEAKVKEMNERLEDEEEMNAVLTAKKRKLEDECSELKRDID [E935V E935V], the mutation enrichment score in the assay with KPNA4_Arm__O00629_68_487 (setting [10]) was -4.
As for VGEHGLGQAPGHLSGLSVPCHLPSPPAGTLTCELKSCPYCT [P684H P684H], the mutation enrichment score in assay [2] (setting [7]) is -4; in the assay with Src_SH3__P12931_87_144 (setting [13]), -11.
For the molecule VGEHGLGQAPGHLSGLSVPCRLPSPPAGTLTCELKSCPYCT [P684R P684R], the mutation enrichment score in [2] (setting [7]) was -4; with KPNA4_Arm__O00629_68_487 (number of wild-type / mutant comparisons summed (bounds the score): 27, paper call: no_effect), -5; with Src_SH3__P12931_87_144 (setting [13]), -11.
